In PubChem BioAssay AID1963576 (National Center for Advancing Translational Sciences (NCATS), 2024):
Out of some 46,000 compounds screened, about 60 (0.1%) were called active. Another 3% or so got no clear call; they are omitted. Calls follow the shape of the dose curve; as a rule, active = well fitted inhibition curve with a large enough effect; inconclusive = small, poorly fitted or top-dose-only effect; inactive = no such curve, though single readings can be large or run the other way. Some of the results follow.

test: Primary qHTS assay for Inhibitors of ovarian cancer metastasis using an organotypic tumor microenvironment (TME) model.; also: nearly all actives have a fitted effect of over 65% in size;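 as to activity change, negative = inhibition: plate controls were DMSO wells for no effect and tomatine positive control wells for full effect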; conditions: SKOV3ip1-GFP adhesion/invasion on 3D omental model, fluorescence; series mostly up to 45.8 µM; activity change, negative = inhibition: at the top concentration
Outline: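 qHTS, 4-pt dose (0.36-46 umol/L); SKOV3ip1-GFP, 1,200 cells/well, no FBS; primary omental fibroblast/mesothelial co-culture 48 h pre-grown; 2 h RT + 16 h 37 C; PBS wash, 4% PFA; GFP count 488/509 nm.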

Activity change, negative = inhibition, inactive:
O=C(Cn1cc(C(=O)c2ccco2)c2ccccc21)Nc1ccc(Br)cc1 1.1%
CC1CCN(S(=O)(=O)c2cn(CC(=O)Nc3cccc(C(F)(F)F)c3)c(=O)c3ccccc23)CC1 -3.69%
O=C(CSc1ccccc1)N1CCc2c([nH]c3ccccc23)C1c1ccc(F)cc1 (stereo unspecified) 1.48%
CCOC(=O)c1cnn(-c2ccc(C(=O)Nc3cc(OC)c(OC)c(OC)c3)cc2)c1N -0.082%
COc1cccc(CSc2nc3ccccc3c3nc(CCn4c(C)nc5ccccc54)nn23)c1 -4.28%
CCCn1c2ccccc2c2cnn(CC(=O)N(C)c3ccc(F)cc3)c(=O)c21 0.254%
COc1cccc(NC(=O)c2ccc3nc(CCc4ccccc4)oc3c2)c1 9.64%
CCCCNc1nc(Oc2ccc(OCC)nn2)nc(N2CCOCC2)n1 4.46%
COc1ccc(Cl)cc1NC(=O)c1c(NCc2ccc(C)o2)sc2c1CCCCC2 -8.69%
CSc1ncc(Cl)c(C(=O)Nc2ccc(NC(C)=O)cc2)n1 1.88%
CCC1CCCCN1C(=O)Cn1c(=O)n(CCCCCC(=O)NCc2ccccc2)c(=O)c2sccc21 (stereo unspecified) -1.59%
COc1ccccc1CNC(=O)CCC(=O)N1CC2CCCN2c2ccccc21 (stereo unspecified) -0.39%
O=C(NCc1ccc2c(c1)CCN2C(=O)c1ccc(F)cc1)c1cc2ccccc2[nH]1 -2.18%
Cc1cccc(C)c1OCCn1c(C2CC(=O)N(c3cccc(Cl)c3)C2)nc2ccccc21 (stereo unspecified) -1.88%
O=C(Cc1ccc(Cl)cc1)Nc1ccc2nn(-c3ccc(Cl)cc3)nc2c1 1.57%
c1ccc(CNc2nc3c(-c4ccccc4)nnn3c3ccccc23)cc1 -9.94%
O=C(Nc1ccccc1-c1cn2c(CN3CCNCC3)csc2n1)c1cnc2ccccc2n1 -15.3%
CCOc1ccc(S(=O)(=O)NCCc2sc3nc(-c4ccc(F)cc4)nn3c2C)cc1 -1.48%
CCOc1ccc(OCC)c(NS(=O)(=O)c2cc(-c3cc(C)no3)ccc2C)c1 -5.03%
NC(N)=NC(N)=NCCc1ccccc1 4.29%
CC(C)Sc1oc(-c2cccs2)nc1S(=O)(=O)c1ccc(Cl)cc1 1.9%
CC(=O)c1ccc(NC(=O)CSc2nnc3ccc(-c4ccc(Cl)cc4)nn23)cc1 -4.7%
CCOc1ccc(NC(=O)NCc2c(-n3cccc3)sc3c2CCCC3)cc1 -10.3%
Cc1oc2ncnc(N3CCCCC3)c2c1C(=O)N1CCN(c2cccc(C(F)(F)F)c2)CC1 1.59%
CCC(=O)Oc1ccc(/C=C(\C#N)c2nc3ccccc3[nH]2)cc1OC 2.23%
COc1ccc(-c2cc(C(F)(F)F)nc(S(=O)(=O)CCCC(=O)Nc3cccc(O)c3)n2)cc1OC -20.6%
CCc1ccc(NCc2cc3cc4c(cc3n(CC(=O)Nc3ccc(C)cc3)c2=O)OCO4)cc1 -8.88%
CCOc1ccccc1NC(=O)C(=O)NCCc1sc(-c2cccc(F)c2)nc1C 9.87%
CCCCn1c(SCC(=O)NCCCOC)nc2c(sc3ccccc32)c1=O -7.31%
Cc1cc(C)c(NC(=O)CSc2nc3nc(C)cc(C)n3n2)c(C)c1 -8.01%
COc1ccccc1N1CCN(c2ncccc2-c2nc(-c3ccc(Cl)cc3)no2)CC1 2.55%
C[C@H](CCC(=O)O)[C@H]1CCC2C3C[C@H](O)[C@@H]4C[C@H](O)CC[C@]4(C)C3CC[C@@]21C (stereo partly specified) 20.5%
CCCCOc1cccc(C2c3c(oc4ccccc4c3=O)C(=O)N2c2ccccn2)c1 (stereo unspecified) 0.65%
O=C(CSc1nc(-c2ccc(F)cc2)[nH]c1-c1ccccc1)NCC1CCCO1 (stereo unspecified) -7%
CCCC1=Nc2cc(C(=O)NC(C)c3ccccc3)ccc2Sc2ccc(C)cc21 (stereo unspecified) 2.24%
O=C(CCN1N=C(c2ccccc2)CCC1=O)NCCc1ccc(Cl)cc1 -8.07%
O=c1c2c(-c3ccccc3)ccnc2[nH]n1-c1ccccc1 7.44%
Cc1cc(C(F)F)n2nc(C(=O)Nc3c(C)cccc3C)nc2n1 5.3%
Cc1ccc(NC(=O)/C=C/c2ccc(C)o2)c(C)c1 3.58%
CCc1ccc(NC(=O)CN(c2ccc(OC)cc2)S(=O)(=O)c2c(C)[nH]c(=O)[nH]c2=O)cc1 -5.2%
COc1ccc(-n2c(CC3C(=O)N(C)c4ccc(C)cc43)nc3ccccc3c2=O)cc1 (stereo unspecified) 2.39%
CCOc1ccc(C(=O)c2cn(Cc3ccccc3OC)c3ccc(F)cc3c2=O)cc1 2.13%
COc1ccc(S(=O)(=O)N2CCC(Oc3ccc(-n4cnnn4)cc3)CC2)cc1OC -3.31%
CC(=O)Nc1ccc(NC(=O)CSc2nc3ccccc3nc2N2CCOCC2)cc1 -1.78%
CCOc1ccc(N(CC(=O)NCc2ccccc2Cl)S(=O)(=O)c2c(C)[nH]c(=O)[nH]c2=O)cc1 -9.97%
O=C(NCc1ccco1)c1ccc2c(c1)N(Cc1cccc(Cl)c1)C(=O)c1ccccc1S2(=O)=O 4.08%
COc1ccc(-c2noc(CNC(=O)c3ccco3)n2)cc1 -11.6%
Cc1nn(-c2ccccc2)c2nc(C3CC3)cc(C(=O)Nc3ccccc3F)c12 -47.6%
Cc1ccccc1C(=O)Nc1nnc(S(=O)(=O)N2c3ccccc3CC2C)s1 (stereo unspecified) 0.325%
CN1C(=O)c2ccccc2Sc2ccc(NC(=O)COc3ccc(F)cc3)cc21 -21.8%
Fc1ccc(CN2CCc3nc(Nc4ccccc4)ncc3C2)cc1F 1.14%
COc1ccc(CCNc2ncnc3c2cnn3-c2ccc(C)cc2)cc1 2.3%
COc1ccc(C(c2c(O)cc(C)n(Cc3ccco3)c2=O)N2CCCCC2)cc1OC (stereo unspecified) -3.05%
CC1CCN(C(=O)CSc2nc(-c3ccccc3)no2)CC1 -14.8%
CCOc1cccc(CC(=O)N2CCc3c([nH]c4ccccc34)C2c2ccc(Cl)cc2)c1OCC (stereo unspecified) 0.767%
COc1cc(Cl)c(C)cc1NC(=O)c1ccc2c(Cl)c3c(nc2c1)CCC3 -14.9%
O=C(Cn1cc(SCc2cccc(Cl)c2)c2ccccc21)N1CCCCCC1 -2.99%
CCc1ccc(Oc2c(C(F)(F)F)oc3c(CN4CCN(C)CC4)c(O)ccc3c2=O)cc1 -0.836%
CCOc1ccccc1NC(=O)c1c(NC(=O)c2ccccc2)sc2c1CCCC2 18.5%
COc1ccc(-n2ccn(CC(=O)NCCc3ccccc3)c(=O)c2=O)cc1OC 8.05%
COc1ccccc1CN(Cc1ccco1)c1cnc(S(C)(=O)=O)nc1C(=O)Nc1cc(C)ccc1C 2.48%
COc1cccc(CNC(=O)Cn2ncc3c4ccccc4n(Cc4ccccc4)c3c2=O)c1 -16.9%
O=C(NCCc1csc2nc(-c3ccc(F)cc3)nn12)c1cccc(C(F)(F)F)c1 1.19%
CC(C)(C)c1ccc(-c2nc3cc(NC(=O)c4cccc(Br)c4)ccc3o2)cc1 5.81%
COc1ccc(Cn2c(SCc3ccc(C(=O)NC4CCCC4)cc3)nc3cccnc32)cc1 3.45%
Cc1cccc(NC(=O)CCc2c(C)nc3nc(CNC(=O)c4cccc(F)c4)nn3c2C)c1 2.87%
Cn1c(=O)c2c(ncn2CC(=O)Nc2cccc(C(F)(F)F)c2)n(C)c1=O -3.06%

outcome, inactive:
CSc1ncc2c(n1)-c1ccccc1N(Cc1ccc(Cl)cc1)S2(=O)=O
Cc1ccc(-n2ncc(C(=O)NCc3ccccc3C)c2-n2cccc2)cc1
COc1cccc(NC(=O)C2CCCN(S(=O)(=O)c3c(C)nn(C)c3C)C2)c1 (stereo unspecified)
COc1ccc(SCc2cc(=O)c3cc(Cl)ccc3[nH]2)cc1
CCOc1ccc(CCNC(=O)c2cn(CC)c3ccc(S(=O)(=O)N4CCc5ccccc5C4)cc3c2=O)cc1OCC
CCn1c2ccccc2c2cc(CN3CCN(Cc4ccccc4F)CC3)ccc21
Cc1ccc(CNC(=O)c2ccc(Cn3c(=O)c4ccccc4n(CC(=O)Nc4ccc(C)cc4C)c3=O)cc2)cc1
CCc1ccccc1N1C(=O)N(Cc2ccc(C#N)cc2)c2ccccc2S1(=O)=O
Cc1ccc(Nc2c(-c3cccs3)nc3nc(C)cc(C)n23)cc1
CCOc1ccc(NC(=O)C2CCCN(S(=O)(=O)c3cccc4nonc34)C2)cc1 (stereo unspecified)
CCn1c(=O)c2sccc2n2c(CCCC(=O)N3CCN(c4cc(Cl)ccc4C)CC3)nnc12
CCN(CC)c1cc(C)c2cc(NC(=O)c3ccccc3OC)ccc2n1
Cc1cc(C)c(NC(=O)CSc2ccc(-c3sc(-c4ccccc4)nc3C)nn2)c(C)c1
CCc1ccc(C(=O)c2cn(CC(=O)Nc3ccc(OC)c(OC)c3)c3ccc(C)cc3c2=O)cc1
COc1ccc(-c2nnc(SCC(=O)NCc3ccc(C)cc3)nc2-c2ccc(OC)c(OC)c2)cc1OC
CCOC(=O)c1cnc2c(ccc3ccccc32)c1Nc1cccc(OC)c1
O=C(NCCc1ccccc1)c1cc(S(=O)(=O)N2CCCCC2)c[nH]1
Cc1ccc(CN(Cc2ccco2)C(=O)COc2cc(C)c(Cl)c(C)c2)cc1
COc1ccc(CCNC(=O)c2ccc3c(c2)N(Cc2ccccc2F)C(=O)c2ccccc2S3(=O)=O)cc1OC
Cc1nn(C(=O)c2c(F)cccc2F)c(C)c1S(=O)(=O)N1CCOCC1
Cc1cccc(N2CCN(C(=O)c3cc4c(=O)oc5ccccc5c4s3)CC2)c1C
Oc1c(C(c2ccccc2Cl)N2CCCC2)sc2nc(-c3ccco3)nn12 (stereo unspecified)
Cc1ccc(CNC(=O)CSc2cc(C)[nH]c(=O)n2)cc1
COc1ccc(C2C(=O)N(C3CCCCCC3)CC(=O)N2Cc2ccc(C)cc2)cc1OC (stereo unspecified)
COc1cc(C(=O)N2CCC(c3nc4ccccc4o3)CC2)cc(OC)c1OC
Cc1c(NS(=O)(=O)c2ccccc2)cc(C(C)C)c(O)c1S(=O)(=O)c1ccc(Cl)cc1
CCOc1ccccc1CNC(=O)c1cnc2sc(N3CCCCCC3)nn2c1=O
COc1cccc(C(=O)NCc2nc(-c3ccccc3)no2)c1OC
CCc1ccc(S(=O)(=O)NCCc2csc3nc(-c4ccccc4)nn23)s1
